# From the supplement of paper PMC8728848
# This is one part of the list.
# B1: AT1G73650(15) (Arabidopsis thaliana), F4HRY1 (protein)
# chain: MGTVLDSHFLALTAIVTVIYQFIFFVITALFKFDQVTDFAGSTNFVILAVLTLVLKASWHFRQIVLTLLVVVWGLRLGIFLLMETRILQWGEDRRFDEQRGNIVRLIIFWTLQAVWVWTVSLPLTLVNASDGGGSLKPADVIGWTMETWVFGFLIEAAADQQKLSFKNSPENRGKWCDVGVWKYSRHPNYFGEMETLLWWGIFVAASPVLEGAEYLVIFGPLFLTLLLLFVSGIPLLEASADKKHGNSGAYRSYKKTTSPLILFPRGVYGNLPGWFKTVFLFEFPFYSRNLPQEGRLQNSKEKEVKDD
# Key:
# Assay in all cases: glycan array binding signal (z-score within array); higher = stronger binding
# Conditions in all cases: glycan notation: IUPAC condensed, linker removed
# [1] = molecular target: Gal(b1-4)GlcNAc(b1-6)Gal(b1-4)GlcNAc
# How it was run: (§1)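 The binding signal is a Z-score computed within each array and averaged over linkers. Arrays of the same protein sequence at different concentrations or buffers were also averaged together. Data originate from 3228 arrays in the Consortium for Functional Glycomics database, kept only where the protein sequence was available.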
# [2] = molecular target: Gal(b1-4)GlcNAc(b1-6)GalNAc
# How it was run: as §1
# [3] = molecular target: Gal(b1-4)GlcNAc(b1-6)[Gal(b1-3)]GalNAc
# How it was run: as §1
# [4] = molecular target: Gal(b1-4)GlcNAc(b1-6)[Gal(b1-4)GlcNAc(b1-3)]GalNAc
# How it was run: as §1
# Gal(b1-4)GlcNAc6P = molecular target: Gal(b1-4)GlcNAc6P
# How it was run: as §1
# Gal(b1-6)Gal = molecular target: Gal(b1-6)Gal
# How it was run: as §1
# Gal3S(b1-3)GalNAc = molecular target: Gal3S(b1-3)GalNAc
# How it was run: as §1
# Gal3S(b1-3)GlcNAc = molecular target: Gal3S(b1-3)GlcNAc
# How it was run: as §1
# [5] = molecular target: Gal3S(b1-3)[Fuc(a1-4)]GlcNAc
# How it was run: as §1
# Gal3S(b1-4)Glc = molecular target: Gal3S(b1-4)Glc
# How it was run: as §1
# Gal3S(b1-4)Glc6S = molecular target: Gal3S(b1-4)Glc6S
# How it was run: as §1
# Gal3S(b1-4)GlcNAc = molecular target: Gal3S(b1-4)GlcNAc
# How it was run: as §1
# [6] = molecular target: Gal3S(b1-4)[Fuc(a1-3)]Glc6S
# How it was run: as §1
# [7] = molecular target: Gal3S(b1-4)[Fuc(a1-3)]GlcNAc
# How it was run: as §1
# [8] = molecular target: Gal3S(b1-4)[Fuc(a1-3)]GlcNAc6S
# How it was run: as §1
# Gal3S4S(b1-4)GlcNAc = molecular target: Gal3S4S(b1-4)GlcNAc
# How it was run: as §1
# Gal3S6S(b1-4)GlcNAc = molecular target: Gal3S6S(b1-4)GlcNAc
# How it was run: as §1
# Gal3S6S(b1-4)GlcNAc6S = molecular target: Gal3S6S(b1-4)GlcNAc6S
# How it was run: as §1
# Gal4S(b1-4)GlcNAc = molecular target: Gal4S(b1-4)GlcNAc
# How it was run: as §1
# Gal4S6S(b1-4)GlcNAc = molecular target: Gal4S6S(b1-4)GlcNAc
# How it was run: as §1
# Gal6P(b1-4)GlcNAc = molecular target: Gal6P(b1-4)GlcNAc
# How it was run: as §1
# Gal6S(b1-3)GlcNAc = molecular target: Gal6S(b1-3)GlcNAc
# How it was run: as §1
# Gal6S(b1-3)GlcNAc6S = molecular target: Gal6S(b1-3)GlcNAc6S
# How it was run: as §1
# Gal6S(b1-4)Glc = molecular target: Gal6S(b1-4)Glc
# How it was run: as §1
# Gal6S(b1-4)Glc6S = molecular target: Gal6S(b1-4)Glc6S
# How it was run: as §1
# Gal6S(b1-4)GlcNAc = molecular target: Gal6S(b1-4)GlcNAc
# How it was run: as §1
# Gal6S(b1-4)GlcNAc6S = molecular target: Gal6S(b1-4)GlcNAc6S
# How it was run: as §1
# GalNAc(a1-3)Gal = molecular target: GalNAc(a1-3)Gal
# How it was run: as §1
# GalNAc(a1-3)GalNAc = molecular target: GalNAc(a1-3)GalNAc
# How it was run: as §1
# [9] = molecular target: GalNAc(a1-3)GalNAc(b1-3)Gal(a1-4)Gal(b1-4)Glc
# How it was run: as §1
# [10] = molecular target: GalNAc(a1-3)GalNAc(b1-3)Gal(a1-4)Gal(b1-4)GlcNAc
# How it was run: as §1
# GalNAc(b1-3)Gal = molecular target: GalNAc(b1-3)Gal
# How it was run: as §1
# [11] = molecular target: GalNAc(b1-3)Gal(a1-4)Gal(b1-4)GlcNAc
# How it was run: as §1
# [12] = molecular target: GalNAc(b1-3)Gal(a1-4)Gal(b1-4)GlcNAc(b1-3)Gal(b1-4)Glc
# How it was run: as §1
# [13] = molecular target: GalNAc(b1-3)Gal(a1-6)Gal(b1-4)Glc
# How it was run: as §1
# GalNAc(b1-3)GalNAc = molecular target: GalNAc(b1-3)GalNAc
# How it was run: as §1
# GalNAc(b1-3)GlcNAc = molecular target: GalNAc(b1-3)GlcNAc
# How it was run: as §1
# GalNAc(b1-4)Gal(b1-4)Glc = molecular target: GalNAc(b1-4)Gal(b1-4)Glc
# How it was run: as §1
binder,measurement,setting,value
B1,glycan array binding signal (z-score),[1],-0.461
same,glycan array binding signal (z-score),[2],1.54
same,glycan array binding signal (z-score),[3],0.371
same,glycan array binding signal (z-score),[4],-0.029
same,glycan array binding signal (z-score),Gal(b1-4)GlcNAc6P,0.323
same,glycan array binding signal (z-score),Gal(b1-6)Gal,-0.043
same,glycan array binding signal (z-score),Gal3S(b1-3)GalNAc,-0.498
same,glycan array binding signal (z-score),Gal3S(b1-3)GlcNAc,0.044
same,glycan array binding signal (z-score),[5],-0.032
same,glycan array binding signal (z-score),Gal3S(b1-4)Glc,-0.122
same,glycan array binding signal (z-score),Gal3S(b1-4)Glc6S,0.9
same,glycan array binding signal (z-score),Gal3S(b1-4)GlcNAc,-0.425
same,glycan array binding signal (z-score),[6],0.491
same,glycan array binding signal (z-score),[7],0.451
same,glycan array binding signal (z-score),[8],1.88
same,glycan array binding signal (z-score),Gal3S4S(b1-4)GlcNAc,1.83
same,glycan array binding signal (z-score),Gal3S6S(b1-4)GlcNAc,-0.05
same,glycan array binding signal (z-score),Gal3S6S(b1-4)GlcNAc6S,0.919
same,glycan array binding signal (z-score),Gal4S(b1-4)GlcNAc,-0.333
same,glycan array binding signal (z-score),Gal4S6S(b1-4)GlcNAc,-0.444
same,glycan array binding signal (z-score),Gal6P(b1-4)GlcNAc,-0.17
same,glycan array binding signal (z-score),Gal6S(b1-3)GlcNAc,0.589
same,glycan array binding signal (z-score),Gal6S(b1-3)GlcNAc6S,-0.282
same,glycan array binding signal (z-score),Gal6S(b1-4)Glc,0.597
same,glycan array binding signal (z-score),Gal6S(b1-4)Glc6S,2.51
same,glycan array binding signal (z-score),Gal6S(b1-4)GlcNAc,0.188
same,glycan array binding signal (z-score),Gal6S(b1-4)GlcNAc6S,-0.404
same,glycan array binding signal (z-score),GalNAc(a1-3)Gal,-0.091
same,glycan array binding signal (z-score),GalNAc(a1-3)GalNAc,-0.594
same,glycan array binding signal (z-score),[9],-0.41
same,glycan array binding signal (z-score),[10],-0.431
same,glycan array binding signal (z-score),GalNAc(b1-3)Gal,-0.641
same,glycan array binding signal (z-score),[11],1.52
same,glycan array binding signal (z-score),[12],-0.077
same,glycan array binding signal (z-score),[13],-0.625
same,glycan array binding signal (z-score),GalNAc(b1-3)GalNAc,-0.141
same,glycan array binding signal (z-score),GalNAc(b1-3)GlcNAc,1.4
same,glycan array binding signal (z-score),GalNAc(b1-4)Gal(b1-4)Glc,2.36
